According to PubChem BioAssay AID652104 (National Center for Advancing Translational Sciences (NCATS), 2013):
Among all 410,000 compounds or so, about 7,200 (1.8%) were called active. Inconclusive means that the source gave no clear call. Such entries were picked first, then a sample of the others. Calls follow the shape of the dose curve; as a rule, active = well fitted activation curve with a large enough effect; inconclusive = small, poorly fitted or top-dose-only effect, or another doubt; inactive = no such curve, though single readings can be large or run the other way. Potencies of inconclusive entries are left out as doubtful fits.
Potency is read from the fitted curve at half-maximal effect; tags tell the direction and shape of the fitted curve.

Experiment: qHTS of TDP-43 Inhibitors; also: nearly all actives have a fitted effect of over 50% in size; as to growth rescue (activation): % of control where 0% means no effect
Conditions: TDP-43 expressing yeast growth rescue, BacTiter-Glo, 24 h; growth rescue (activation): at 46.1 µM (top of the series) unless noted
How it was run: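 Yeast expressing TDP-43 (pregrown in raffinose, seeded at OD600=0.02 in galactose medium) exposed to compounds 24 hr at 30 deg C. Growth read by BacTiter-Glo luminescence; rescue of toxicity appears as increased signal.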
For `Cc1cc2c(cc1S(=O)(=O)NCc1ccccc1)NC(=O)CO2`, the “growth rescue (activation)” value was inactive: -11.6%.
In the case of `CC(C)CC(=O)NC(c1cccs1)c1ccc2cccnc2c1O` (stereo not given), the Potency is reported as inconclusive [activator, single point].
In the case of `COc1cc(C2Nc3ccccc3-c3cc(C)nn32)ccc1O` (stereo not given), the “growth rescue (activation)” value is reported as inactive: 15.1%.
In the case of `CN1OC[C@@H]2CN(Cc3cc(Cl)cc(Cl)c3)[C@H](c3cccc(Oc4ccccc4)c3)C[C@@H]21`, the Potency is reported as inconclusive [activator, single point].
For `C=CCNc1nc(C)c(CNc2c(C)cc(C)cc2C)nc1C#N`, the Potency was inconclusive [activator, partial curve].
With `COc1ccc(OC)c(S(=O)(=O)N2C(C)CCCC2C)c1` (stereo not given) the Potency was inconclusive [activator, partial curve, poor fit].
In the case of `COC(=O)c1ccc(NC(=O)CSc2nnc(C)n2CC2CCCO2)cc1` (stereo not given), the “growth rescue (activation)” value is reported as inactive: 5.92%.
In the case of `CC(=O)n1c2ccccc2c2ccccc21`, the “growth rescue (activation)” value is reported as inactive: -3.76%.
For `Cc1cc2ccccn2c1C(=O)c1ccc(F)cc1`, the Potency was inconclusive [activator, partial curve].
With `Cc1cc(=S)[nH]c2c(C)cccc12` the Potency was inconclusive [activator, partial curve].
For `O=C(COC(=O)c1ccco1)NC1CCCc2ccccc21` (stereo not given), the Potency was inconclusive [activator, partial curve, poor fit].
For `Nn1c(C2CCC2)nc2ccccc2c1=O`, the “growth rescue (activation)” value was inactive: -10.6%.
For `CCN1C/C(=C/c2cccc([N+](=O)[O-])c2)C(=O)/C(=C/c2cccc([N+](=O)[O-])c2)C1`, the Potency was inconclusive [activator, single point].
With `COc1ccc(Cl)cc1NC(=O)c1c(NCc2cccs2)sc2c1CCC(C)C2` (stereo not given) the “growth rescue (activation)” value was inactive: 26.5%.
With `CC(C)c1ccc(NC(=O)CSC2=Nc3ccccc3C3=NC(CC(=O)NCCc4ccccc4)C(=O)N23)cc1` (stereo not given) the Potency was inconclusive [activator, partial curve].
In the case of `Cc1[nH]c2ccccc2c1SCCNC(=O)c1ccc(F)cc1`, the Potency is reported as inconclusive [activator, partial curve, poor fit].
With `Cc1cc(-c2ccc(C)c(S(=O)(=O)NCCc3ccccc3)c2)on1` the Potency was inconclusive [activator, partial curve].
With `COC(=O)c1ccccc1NC(=O)CSc1nc(N)cc(N)n1` the Potency was inconclusive [activator, full curve, poor fit].
With `O=C(COC(=O)CC1CCCC1)Nc1cccc(F)c1` the “growth rescue (activation)” value was inactive: 16%.
For `O=C(CSCc1ccccc1Br)N/N=C/c1ccc2c(c1)OCO2`, the Potency was active: 17.8 µM.
